PubChem BioAssay AID504832 (National Center for Advancing Translational Sciences (NCATS), 2011)
About 18,000 (5.8%) of roughly 310,000 compounds were called active. The inconclusive results got no clear call from the source; some entries with a clear call stand among them for comparison. The call rests on the fitted dose curve; in most records, active means well fitted inhibition curve with a large enough effect; inconclusive means small, poorly fitted or top-dose-only effect, or another doubt; inactive means no such curve, though single readings can be large or run the other way. Potencies of inconclusive entries are left out as doubtful fits.

Experiment: Primary qHTS for delayed death inhibitors of the malarial parasite plastid, 48 hour incubation
Details: P. falciparum luciferase growth in erythrocytes; series mostly up to 28.7 µM
Procedure, shortened: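 Growth was read as firefly luciferase luminescence after a 48 h, 37 C, 5% CO2 exposure of compounds to reporter-bearing P. falciparum cultures (0.1% parasitemia, 2% hematocrit final) in Albumax-supplemented RPMI 1640.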
Potency means the concentration at half of the fitted maximal effect; tags describe the fitted curve by direction and shape.

SMILES | Potency
CCOc1ccc2[nH]c3c(=O)n(CCc4ccc(OC)cc4)cnc3c2c1 | inactive
COc1ccccc1N1C(=O)CC(N2CCN(c3ccc([N+](=O)[O-])cc3)CC2)C1=O (stereo not drawn) | inactive
CCN1C(=O)N(c2cccc3ccccc23)C(C)=CC1(C)C | inactive
COc1ccc(/C=C/c2nc3ccccc3n2Cc2ccccc2OC)cc1 | inconclusive [inhibitor, single point]
COc1ccc(CC(=O)N2CCN(C(=O)c3ccco3)CC2)cc1 | inactive
CC1(C)Oc2ccc3ccc(=O)oc3c2/C(=C/NC2CCCCC2)C1=O | inconclusive [inhibitor, single point]
C=C(C)COc1ccc(-c2[nH]ncc2Oc2ccccc2OC)c(O)c1 | active: 13.1 µM
Cc1ccc(C(=O)CC2(O)C(=O)N(Cc3ccccc3Cl)c3ccccc32)o1 (stereo not drawn) | inconclusive [inhibitor, single point]
COc1ccc(Nc2nc(NCc3ccco3)nc(N)c2[N+](=O)[O-])cc1 | inactive
COc1ccc(S(=O)(=O)N2CCSCC2)cc1C(N)=O | inactive
O=C(NCCCn1ccnc1)c1cccc(S(=O)(=O)Nc2ccc(Br)cc2)c1 | inconclusive [inhibitor, single point]
COc1ccc(CNC(=O)[C@H](Cc2c[nH]c3ccccc23)NC(C)=O)cc1OC | inactive
Cc1ccc(C)c(S(=O)(=O)N2CCN(c3nc(-c4cccnc4)nc4ccccc34)CC2)c1 | active: 3.29 µM
COC(=O)CSC1=C(C#N)C(c2ccc(C)o2)CC(=O)N1 (stereo not drawn) | inactive
Cc1cc[n+](CC2OCc3ccccc3CO2)cc1 | inconclusive [inhibitor, partial curve]
CCOC(=O)c1ccc2c(c1)n(CC)c(/C=C/N(C)c1ccccc1)[n+]2CC | active: 1.17 µM
CCN(CC)c1ccc(CN(C(=O)c2cc(OC)c(OC)c(OC)c2)C2CCS(=O)(=O)C2)cc1 (stereo not drawn) | inconclusive [inhibitor, full curve, poor fit]
Cc1cc(O)cc(=O)n1C | inconclusive [inhibitor, full curve, poor fit]
Cc1nnc(SCC(=O)N2CCCCC2)s1 | inactive
COc1ccc(NC(=O)c2ccc(Cl)c(S(=O)(=O)NCC3CCCO3)c2)c(OC)c1 (stereo not drawn) | inconclusive [inhibitor, partial curve, poor fit]
O=[N+]([O-])c1ccc(-c2nc(NCc3cccnc3)c3ccccc3n2)cc1 | inactive
Cn1nnc(NC(=O)c2ccco2)n1 | inactive
COc1ccc(-c2noc(CCC(=O)NCC3CCCO3)n2)cc1 (stereo not drawn) | inactive
CC1CN=C(N(C(=O)Nc2ccccc2)C(C)c2ccccc2)S1 (stereo not drawn) | inconclusive [inhibitor, single point]

SMILES | Potency
COc1ccc(CCNC(=S)NCCc2ccc(OC)c(OC)c2)cc1OC | active: 6.57 µM
Cc1ccn2c(=O)nc(SCC(=O)OCc3ccccc3)nc2c1 | inconclusive [inhibitor, partial curve]
CCSCC1COC(c2cccn2Cc2ccc(C)cc2)=N1 (stereo not drawn) | inconclusive [inhibitor, single point]
O=C(NCCc1ccccc1)c1cc(-c2ccc3c(c2)OCO3)on1 | inactive
Cc1ccc(C(=O)C2CCNCC2)cc1 | inconclusive [inhibitor, single point]
COc1ccc(N(CC(=O)N2c3ccccc3CC2C)S(=O)(=O)c2c(C)noc2C)cc1 (stereo not drawn) | active: 11.7 µM
COc1ccc(CNc2nc(-c3cccnc3)nn2C(=O)c2cccs2)cc1 | inactive
CCc1nnc(NC(=O)Nc2ccc(Cl)cc2)s1 | inconclusive [inhibitor, single point]
Cc1ccc(C(=O)NN2C(=O)C3C(C2=O)C2C=CC3C23CC3)cc1 (stereo not drawn) | inactive
CCN1C(=NCC(C)C)N[C@@H](c2cccc(F)c2)C(C(=O)OC)=C1C | inconclusive [inhibitor, partial curve, poor fit]
Nc1c(-c2ccc(Cl)cc2)nnn1-c1ccccc1 | inactive
CCS(=O)(=O)N1CCC(C(=O)NCc2cccs2)CC1 | inactive
CC(OC(=O)c1cc(S(=O)(=O)N2CCOCC2)ccc1Br)C(=O)N1CCOCC1 (stereo not drawn) | inconclusive [inhibitor, single point]
Cc1occc1C(=O)O/N=C(\N)c1ccc(Cl)cc1 | inconclusive [inhibitor, partial curve]
CC(=O)c1ccc(N(C(=O)CNC(=O)c2ccco2)C(C(=O)NC2CCCC2)c2ccc(C)o2)cc1 (stereo not drawn) | inconclusive [inhibitor, partial curve, poor fit]
CN(C(=O)c1ccc(NC(=O)Cc2ccc(NC(=O)C3CCN(C(=O)C4CCCCC4)CC3)cc2)cc1)C1CC1 | inconclusive [inhibitor, partial curve]
O=C(c1ccccc1)N1CCC(CC2CC(c3ccc(Cl)cc3)=NO2)(C(=O)NCC2CCCCC2)CC1 (stereo not drawn) | inconclusive [inhibitor, full curve]
CCOC(=O)N1CC(=O)Nc2ccc(Br)cc2C1c1ccccc1 (stereo not drawn) | inconclusive [inhibitor, partial curve, poor fit]
Cc1cccc(Cl)c1OCCCCn1ccnc1 | inconclusive [inhibitor, single point]
CCCn1c(COc2ccccc2)nc2ccccc21 | inconclusive [inhibitor, partial curve, poor fit]
Cc1cccc(N(Cc2ccccc2)C(=O)CSC(C)C(=O)Nc2cc(C)on2)c1 (stereo not drawn) | inconclusive [inhibitor, single point]
Cc1cc([N+](=O)[O-])nn1CCCC(=O)N1CCN(c2ccccc2)CC1 | inactive
CCOc1ccc(C(NC(=O)/C=C/c2ccco2)c2ccc(OC)c(OC)c2)cc1 (stereo not drawn) | inconclusive [inhibitor, full curve, poor fit]
CC(C)[C@H](NC(=O)c1ccco1)C(=O)OCC(=O)Nc1ccccc1OC(F)F | inactive
